# Laboratory results as given in paper PMC4336329 (PLoS ONE, 2015).
# Screen size: about 310,000 compounds; about 2,200 (0.71%) showed an effect of 50% or more. The effect is printed as a negative number. Some of the results follow.
# Biological target: human ether-à-go-go-related gene (hERG) potassium channel (human, UniProt Q12809)
# Test: primary screen, population patch clamp on CHO cells stably expressing hERG
# Sequence of human ether-à-go-go-related gene (hERG) potassium channel (Q12809 whole entry, looked up): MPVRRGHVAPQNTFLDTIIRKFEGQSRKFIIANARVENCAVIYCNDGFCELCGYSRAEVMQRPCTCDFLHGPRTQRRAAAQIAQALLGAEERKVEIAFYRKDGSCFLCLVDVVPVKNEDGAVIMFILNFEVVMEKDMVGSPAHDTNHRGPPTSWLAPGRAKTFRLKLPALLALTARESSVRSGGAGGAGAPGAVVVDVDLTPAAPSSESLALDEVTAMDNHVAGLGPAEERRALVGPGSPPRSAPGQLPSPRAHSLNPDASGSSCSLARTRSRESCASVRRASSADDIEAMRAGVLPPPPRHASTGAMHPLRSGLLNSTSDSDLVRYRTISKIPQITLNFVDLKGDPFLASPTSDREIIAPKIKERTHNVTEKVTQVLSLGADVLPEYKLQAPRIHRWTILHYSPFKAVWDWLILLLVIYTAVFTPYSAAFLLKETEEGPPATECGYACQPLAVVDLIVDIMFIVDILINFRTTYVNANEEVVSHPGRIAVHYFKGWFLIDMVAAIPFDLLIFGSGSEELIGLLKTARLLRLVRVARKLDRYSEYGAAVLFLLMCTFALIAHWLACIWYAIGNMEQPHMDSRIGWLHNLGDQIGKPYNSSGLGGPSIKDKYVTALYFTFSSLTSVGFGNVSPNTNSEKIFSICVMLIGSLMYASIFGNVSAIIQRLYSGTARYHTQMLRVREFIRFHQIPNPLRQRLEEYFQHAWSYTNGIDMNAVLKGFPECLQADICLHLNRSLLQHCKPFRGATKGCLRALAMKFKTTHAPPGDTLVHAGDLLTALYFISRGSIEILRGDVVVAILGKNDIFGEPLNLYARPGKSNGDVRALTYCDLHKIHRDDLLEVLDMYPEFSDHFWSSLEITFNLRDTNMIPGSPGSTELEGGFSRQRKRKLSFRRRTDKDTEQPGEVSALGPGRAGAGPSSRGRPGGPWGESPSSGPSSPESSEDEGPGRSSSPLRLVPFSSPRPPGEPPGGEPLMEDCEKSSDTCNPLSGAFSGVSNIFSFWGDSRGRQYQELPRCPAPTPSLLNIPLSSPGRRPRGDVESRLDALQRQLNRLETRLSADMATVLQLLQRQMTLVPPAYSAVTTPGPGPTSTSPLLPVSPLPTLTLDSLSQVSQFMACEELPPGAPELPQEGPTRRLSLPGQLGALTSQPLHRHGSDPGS
row,Compound,"hERG current change (%, negative = inhibition) at 1uM [%]"
1,COc1cc(/C=N/N2C(=O)CSC2=S)ccc1O,4.32
2,O=C(Nc1nc2c(s1)CCc1ccccc1-2)c1cccs1,-0.438
3,O=NN(CCCl)C(=O)NCCCl,13.5
4,CC1=C(C/C=C(\C)CCC[C@H](C)CCC[C@H](C)CCCC(C)C)C(=O)c2ccccc2C1=O,10.2
5,CC(C)C(=O)Nc1cccc(S(=O)(=O)c2cccc(NC(=O)C(C)C)c2)c1,19.5
6,O=C(Cn1nnc(-c2ccccc2-n2cnnn2)n1)NCc1ccccc1,6.77
7,COc1ccccc1C(CCNCc1ccccc1)c1ccc(OC(C)C)cc1 (stereo not drawn),8.66
8,CCOc1cc(Cl)c(NC(=O)CC)cc1OCC,14.5
9,Cc1cccc(NC(=O)c2ccccc2OCC(=O)N2CCOCC2)c1C,8.12
10,O=C(NC(=S)Nc1nc2c(s1)CCCC2)c1ccccc1,16.6
11,COC(=O)c1c(NC(=O)C(C)(C)C)csc1C,12.7
12,CCCCC(CC)CNC(=O)CN1C(=O)NC2(CCc3ccccc32)C1=O (stereo not drawn),11.5
13,Cc1cc(C)cc(C(=O)N2CC(C)OC(C)C2)c1 (stereo not drawn),6.6
14,COC(=O)CCCC(=O)N1CCC(CCC(=O)NC2CC2)CC1,12.6
15,CN(C)c1ccc(C2C=C(c3ccc(Cl)cc3OC(F)F)Nc3ncnn32)cc1 (stereo not drawn),-7.44
16,COc1ccc(-c2nc(CN(Cc3cnn(C)c3)C(C)C)c(C)o2)c(OC)c1,-3.49
17,Cc1cccc(NC(=O)C2CCN(C(=O)c3ccc(Cl)cc3)CC2)n1,-14.1
18,COc1ccccc1N1C(=O)C2C3CC(c4ccccc4)C(C3)C2C1=O (stereo not drawn),12
19,Cc1oc(-c2cccc(Cl)c2)nc1CN1CCCC(C(=O)NC(C)c2ccc3c(c2)OCCO3)C1 (stereo not drawn),-4.26
20,COc1cccc(-n2cc(CNCc3cn(C)nc3-c3ccccc3F)cn2)c1,-6.41
21,Cn1c(SCC(=O)N2CCCCCC2)nnc1-c1ccco1,15.7
22,CCN(N=Nc1cccc([N+](=O)[O-])c1)c1cccc([N+](=O)[O-])c1,-0.554
23,COc1ccc2sc(-c3ccccc3OC)c(-c3ccc(O)cc3)c2c1,12.8

row,Compound,"hERG current change (%, negative = inhibition) at 1uM [%]"
1,CCOCCn1c(=NC(=O)CSCC(=O)Nc2cc(C)on2)sc2cc(OC)ccc21,3.46
2,CC(C)(C)C(=O)Nc1ccc(Cc2ccncc2)cc1,12.9
3,CCOc1ccc(Nc2nc3c(C)cccc3cc2C#N)cc1,8.21
4,CC(C)C(NC(=O)c1ccco1)C(=O)OCc1cc([N+](=O)[O-])cc2c1OCOC2 (stereo not drawn),5.55
5,O=C(CCN1CCN(CCO)CC1)Nc1cccc(Br)c1,0.678
6,Cc1ccc(OCCN(C)C(=O)C2CCC(=O)N(Cc3ccccc3F)C2)cc1 (stereo not drawn),0.888
7,Cc1ccc(C)c(/C(O)=C2\C(=O)C(=O)N(Cc3cccnc3)C2c2cccnc2)c1 (stereo not drawn),-9.76
8,CS(=O)(=O)N1CCC(C(=O)Nc2c(F)cccc2F)CC1,2.59
9,Cc1cccc(NC(=O)Cn2nnc(-c3ccc(CN4CCCC4)cc3)n2)c1C,-5.42
10,COc1ccc(N2C(=O)CC(C3CCCO3)C2=O)cc1 (stereo not drawn),19.4
11,COC(=O)CCc1sc(Nc2ccc(Br)cc2)nc1-c1ccc(OC)cc1,-0.416
12,Cc1c(C(=O)NCCN2CCOCC2)oc2ccc(Br)cc12,6.82
13,Cc1cccc(C(=O)NCC(=O)Nc2ccc(S(=O)(=O)Nc3nc(C)cc(C)n3)cc2)c1,12
14,CC(NC(=O)C1CCC(=O)N1Cc1ccccc1Cl)c1ccccc1 (stereo not drawn),12.1
15,O=C(Nc1ccn(Cc2ccccc2)n1)c1cccc(Cn2cc([N+](=O)[O-])cn2)c1,12
16,CC(C)(C)C(=O)Nc1ccc(N=Nc2ccccc2)cc1,8.4
17,CN(C)c1ccc(N2CC(C)(C)C2=O)cc1,10.4
18,OCCNc1c2ccccc2nc2c(F)c(F)c(F)c(F)c12,14.2
19,C=CCNC(=O)/C(C#N)=C/c1c(C)nn(-c2ccccc2)c1Cl,-1.68
20,O=C(O)/C=C\C(=O)Nc1ccccc1N1CCN(c2ccccc2)CC1,12.7
21,CCC1SC(=Nc2cccc(C)c2)NC1=O (stereo not drawn),12
22,C=C1C(=O)O[C@H]2[C@H]1[C@@H](O)CC(=C)[C@@H]1CC(=O)[C@@H](C)[C@H]21,14
